Assay results published in PubChem BioAssay AID1508624 (National Center for Advancing Translational Sciences (NCATS), 2021).
Screen size: about 48,000 compounds; about 120 (0.25%) were called active. Another 4% or so got no clear call; they are omitted. Calls come from the whole dose curve; as a rule, active = well fitted activation curve with a large enough effect; inconclusive = small, poorly fitted or top-dose-only effect, or another doubt; inactive = no such curve, though single readings can be large or run the other way. This is one part of the list.

Assay: Primary qHTS for Identification of Small Molecule Activators of Huntingtin-Antisense Promoter Activity; note: nearly all actives have a fitted effect of over 55% in size
Conditions: HEK293 HTT-AS promoter firefly luciferase reporter, 24 h; series mostly up to 57.5 µM; activity change, positive = activation: at the top concentration
In short: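 Quantitative HTS used concentration series of up to 57.5 uM final on HEK293 luciferase reporter cells, 24 h at 37 degrees C. Readout was Dual-Glo firefly luminescence.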
Potency is the fitted concentration of half-maximal effect.

Activity change, positive = activation, inactive:
Cc1nc(-c2ccc(F)cc2)sc1CCNC(=O)C(=O)Nc1ccc2c(c1)OCCO2 -19.3%
COc1ccccc1C(=O)Oc1ccc(C(c2c(C)[nH][nH]c2=O)c2c(C)[nH][nH]c2=O)cc1 13.6% [at 11.5 µM, percent change from vehicle, -100% = no light]
COc1cccc(CNC(=O)c2cc(S(=O)(=O)N3CCCCC3)c[nH]2)c1 -9.29%
COc1ccc(CC(=O)Nc2ccc(-c3nc4ccccc4s3)c(C)c2)cc1OC 3.17%
COc1ccc2oc(=O)c(C(=O)N3CCN(c4ccc(C)cc4)CC3)cc2c1 -6.92%
Cc1csc2nc(COC(=O)c3ccccc3NC(=O)c3ccc(C(C)(C)C)cc3)cc(=O)n12 -20.7%
COc1ccc(-c2cc(C(F)(F)F)nc(NCCc3ccccc3)n2)cc1OC -17%
O=C(CCCn1c(=O)c2cccn2c2ccccc21)NCCc1ccc(Cl)cc1 -19.5%
CSc1nn(Cc2ccc(C)cc2)c(N)c1S(=O)(=O)c1ccccc1 -43.6%
Cc1ccc(S(=O)(=O)NC(=O)NN2CC3CCCC3C2)cc1 (stereo unspecified)
COc1ccc(OC)c(NC(=O)Cn2c(=O)cc(-c3ccccc3)c3c(C)nn(C)c32)c1 -36.5%
CCOC(=O)CNC(=O)N1CCN(c2nnc(C)c3c(C)n(-c4ccc(Cl)cc4)nc23)CC1 -2.67%
Cc1cccc(N2CCN(C(=O)CS(=O)(=O)Cc3nc(-c4ccccc4C)oc3C)CC2C)c1 (stereo unspecified) -32.8%
CCc1ccc(S(=O)(=O)c2nnn3c2nc(Nc2ccc(NC(C)=O)cc2)c2sccc23)cc1 -10.2%
CCOc1ccc(N(Cc2ccccc2)C(=O)c2nc(S(C)(=O)=O)ncc2Cl)cc1 -94.5%
O=S(=O)(NCc1nc2cccnc2n1Cc1ccccc1Cl)c1ccc(F)c(Cl)c1 -27.1%
CC(=O)c1c(C)oc2c1cc(NS(=O)(=O)c1ccc(Cl)c(C)c1)c1ccccc12 15.2% [at 11.5 µM, percent change from vehicle, -100% = no light]
Cc1cccc(OCC(=O)Nc2nnc(S(=O)(=O)N3CCc4ccccc43)s2)c1 -15.8%
O=C(Nc1ccc(Cl)cc1)C(NS(=O)(=O)c1cccs1)c1ccccc1 (stereo unspecified) -28.9%
Cc1nc(-c2ccc(C)c(N3CCN(C(=O)Nc4cccc(Cl)c4C)CC3)c2)no1 -35.8%
CCOC(=O)C1CCCN(Cc2cn3c(-c4cccc(Br)c4)nnc3s2)C1 (stereo unspecified) -36.2%
Cc1ccc(-n2c(Cc3ccccc3)nnc2SCc2nc(-c3cccs3)no2)cc1C -43.9%
COc1ccc(CNC(=O)c2ccc3nc(-c4ccc(F)cc4)c(-c4ccc(F)cc4)nc3c2)cc1 -20.4%
CCC1(C)Cc2c(sc3nc(SC)n(-c4ccc(C)cc4)c(=O)c23)CO1 (stereo unspecified) 3.47%
O=C(Nc1ccc(-c2nc3cc(Cl)ccc3o2)cc1)c1cc2ccccc2o1 18.5%
Cc1cc(NC(=O)CCNS(=O)(=O)c2cccc3nsnc23)ccc1Br -34.7%
Cc1ccc(NC(=O)c2ccccc2Br)c(C(=O)c2ccccc2)c1 -21.4%
CC1CCN(c2nc3ccc(C(=O)NCc4ccccc4)cc3s2)CC1 -76.2%
COc1ccc(Cn2c(SCc3ccc(C(=O)NC(C)c4ccccc4)cc3)nc3cccnc32)cc1 (stereo unspecified) -17.7%
CCSc1nc(-c2ccccc2F)nc2c1Cc1c(CO)cnc(C)c1O2 -9.44%
COc1ccc(CCNC(=O)C(C)n2c(=O)cc(-c3ccccc3)c3c(C)nn(C)c32)cc1OC (stereo unspecified) -22.3%
CC1CCN(c2nc3ccc(C(=O)N4CCN(c5ccccc5)CC4)cc3s2)CC1 -77.4%
CCOc1ccc(N(CC)C(=O)c2cc3c(s2)-c2ccccc2OC3)cc1 -31.8%
COc1cccc(N2CCN(C(=O)c3nn(C)c4c3CSc3ccc(C)cc3-4)CC2)c1 0.395%
Cc1ccc(-c2nc3sccn3c2Nc2ccc(C)c(C)c2)cc1 -10.2%
O=c1c(O)c(-c2cc(O)c(O)c(O)c2)oc2cc(O)cc(O)c12 -1.7%
CCC(C(=O)Nc1cc(F)ccc1F)n1nc(C)c2c(C)n(-c3ccc(C)cc3)nc2c1=O (stereo unspecified) -33.2%
CCN(C(=O)c1cn(CC)c(=O)c2cc(OC)c(OC)cc12)c1ccccc1F -18.2%
Cc1cccc(NC(=O)C(=O)NCCc2csc(-c3ccc(F)cc3)n2)c1C -10.8%
Cc1cc(C)c2c(=O)cc(CSc3n[nH]c(C)n3)[nH]c2c1 -7.56%
COc1ccc(CCC(=O)NC2CC(=O)N(c3ccc(OC)cc3)C2)cc1 (stereo unspecified) -20.4%
Cc1cc(N2CCCCC2)nc2ccc(NC(=O)CCC(=O)N3CCN(c4ccccc4)CC3)cc12 30.5%
O=C(CSCc1ccc(F)cc1)N1CCc2c([nH]c3ccccc23)C1c1ccc(Cl)cc1 (stereo unspecified) -25.6%
COc1cc(C(=O)Nc2ccccc2-c2nc(-c3ccc(C)cc3)no2)cc(OC)c1OC -3.47%
COc1ccc(NC(=O)CN2C(=O)c3cccnc3Sc3ccccc32)cc1OC 14.7%

Potency, active:
OCCN(CCO)c1ncnc2c1cnn2-c1ccc(F)cc1 7.94 µM
